PubChem BioAssay AID652104 (National Center for Advancing Translational Sciences (NCATS), 2013)
Out of some 410,000 compounds screened, about 7,200 (1.8%) were called active. Inconclusive means that the source gave no clear call. Such entries were picked first, then a sample of the others. Calls come from the whole dose curve; as a rule, active = well fitted activation curve with a large enough effect; inconclusive = small, poorly fitted or top-dose-only effect, or another doubt; inactive = no such curve, though single readings can be large or run the other way. No potency is given beside an inconclusive call; the fits are too rough.

Test: qHTS of TDP-43 Inhibitors; note: nearly all actives have a fitted effect of over 50% in size; for growth rescue (activation): % of control where 0% means no effect
Settings: TDP-43 expressing yeast growth rescue, BacTiter-Glo, 24 h; growth rescue (activation): at 46.1 µM (top of the series) unless noted
Method in brief: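 Readout is BacTiter-Glo luminescence of cell growth, so inhibitors register as activators. TDP-43-expressing yeast at OD600=0.02 in galactose medium, after raffinose pregrowth to mid-log, were incubated with compound for 24 hr at 30 deg C.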
Potency is the fitted concentration of half-maximal effect; tags give direction and shape of the fitted curve.

| SMILES | Potency | growth rescue (activation) |
| --- | --- | --- |
| O=C(O)Cc1ccc2ccc3ccccc3c2c1 | inconclusive [activator, single point] |  |
| O=C(CSc1n[nH]c(-c2ccc(Cl)cc2Cl)n1)Nc1ccccn1 | inconclusive [activator, full curve, poor fit] |  |
| c1ccc(Nc2ncnc3sc4c(c23)CCC4)cc1 | inactive |  |
| COc1ccc(OC)c(NC(=O)c2cc(S(=O)(=O)NCCc3ccc(Cl)cc3)ccc2F)c1 | inactive |  |
| O=C(Cn1ncc2c3ccccc3n(Cc3ccccc3)c2c1=O)N1CCN(c2ncccn2)CC1 | inactive |  |
| O=C(CCC1N=C2c3ccccc3N=C(SCc3cccc(F)c3)N2C1=O)NCc1cccs1 (configuration not stated) | inconclusive [activator, single point] |  |
| Cc1ccc(C)c(C(=O)Nc2c(C(N)=O)oc3ccccc23)c1 | inconclusive [activator, full curve] |  |
| CCOC(=O)c1scc(-c2ccc(C)cc2)c1S(=O)(=O)N1CCN(c2ccccc2F)CC1 | inactive |  |
| Cc1ccc(CCNC(=O)Cn2nc(-c3ccc(C)cc3)ccc2=O)cc1 | inconclusive [activator, single point] |  |
| CCOC(=O)N1CCN(C(=O)COc2ccc3ccccc3c2Br)CC1 | inconclusive [activator, partial curve] |  |
| O=C(Cn1cnc2c(NCc3ccccc3)ncnc21)NCCCc1ccccc1 | inconclusive [activator, single point] |  |
| O=C(C1COc2ccccc2O1)N1CCN(c2nc3ccccc3s2)CC1 (configuration not stated) | active: 11.2 µM |  |
| COc1ccc(N2CCN(C(=O)c3cn(CC(C)C)c(=O)c4c3c3ccccc3n4C)CC2)cc1 | inconclusive [activator, partial curve] |  |
| COc1ccccc1NC=C1C(=O)OC2(CCCCC2)OC1=O | inconclusive [activator, single point] |  |
| COCc1cc(C)nc2sc(C(=O)N3CCN(c4ccccc4)CC3)c(N)c12 | active: 20 µM |  |
| Cc1ccc(F)c(S(=O)(=O)NC(=O)C2(C)CCN2C(=O)C2(c3ccc(Cl)cc3)CCC2)c1 (configuration not stated) | inconclusive [activator, single point] |  |
| COc1ccc(S(=O)(=O)N2CCN(c3c(C)cccc3C)CC2)cc1OC | inconclusive [activator, single point] |  |
| Cc1ccc(S(=O)(=O)N2CCCCC2)cc1C(=O)OCC(=O)NC(=O)NC12CC3CC(CC(C3)C1)C2 | inconclusive [activator, partial curve] |  |
| Cc1cc(C)nc(NS(=O)(=O)c2ccc(N/C=C\C(=O)c3cccs3)cc2)n1 | inconclusive [activator, single point] |  |
| Clc1cccc(Cc2c(-c3ccco3)nc3ccc(Cl)cn23)c1 |  | inconclusive: -86.9% [activator] |
| COc1ccc(C2CCCN2C(=S)Nc2ccccc2C)cc1OC (configuration not stated) | inactive |  |
| Cc1nc(Cl)cc(N/N=C/c2ccccc2)n1 | active: 7.94 µM |  |
| O=C(c1ccc2c(c1)N(Cc1ccc(F)cc1)C(=O)c1ccccc1S2=O)N1CCC(Cc2ccccc2)CC1 (configuration not stated) | inactive |  |
| CCNc1nc(NC(C)C)nc(N(C#N)CCOc2ccc(Cl)cc2Cl)n1 | inconclusive [activator, single point] |  |

| SMILES | Potency | growth rescue (activation) |
| --- | --- | --- |
| Cc1ccc(S(=O)(=O)NCCC(=O)N2CCN(c3ccccc3)CC2)cc1C | inconclusive [activator, single point] |  |
| OC(Cn1cncn1)c1ccc(Cl)cc1Cl (configuration not stated) | inconclusive [activator, single point] |  |
| CCCC(=O)Nc1nc(C)c(-c2csc(Nc3ccc(Cl)cc3)n2)s1 | active: 14.1 µM |  |
| COC(=O)c1scc(-c2ccc(C)cc2)c1S(=O)(=O)Nc1cc(OC)c(OC)c(OC)c1 | inactive |  |
| CC1C/C(=N\NC(=S)NCc2ccccc2)CC(C)(C)C1 (configuration not stated) | inconclusive [activator, single point] |  |
| CCCCC(CC)CNC(=O)CN1C(=O)CSc2ccc(S(=O)(=O)N3CCOCC3)cc21 (configuration not stated) | inactive |  |
| CN1C(c2ccccc2)=NO[C@]1(C)c1ccccc1 | inactive |  |
| COc1cc(OC)cc(C(=O)/C=C2\Sc3ccccc3N2C)c1 | inactive |  |
| Cc1cccc(C)c1NC(=S)N1CCC(c2ccccc2)C1 (configuration not stated) | inactive |  |
| CC(=O)c1cnc2nc(SCc3ccccc3C)nn2c1C | inconclusive [activator, single point] |  |
| Cc1cccc(-c2noc(CCCC(=O)Nc3cccnc3)n2)c1 | inactive |  |
| O=C(CSc1nc(=O)n2ccccc2n1)N1CCC(Cc2ccccc2)CC1 | active: 20 µM |  |
| CC(Oc1ccc(F)cc1)C(=O)/C=C\N(C)C (configuration not stated) | inconclusive [activator, single point] |  |
| O=C(CSc1nnc(-c2cccs2)n1Cc1ccccc1)N1CCc2ccccc2C1 | inactive |  |
| COC(=O)c1ccc(Oc2c(Cl)cccc2[N+](=O)[O-])cc1 | inconclusive [activator, single point] |  |
| COc1ccc(NC(C)c2cc(Cl)ccc2O)cc1 (configuration not stated) | inactive |  |
| O=C(COC(=O)CNS(=O)(=O)c1ccc(F)c(F)c1F)NC1CCCC1 | inconclusive [activator, single point] |  |
| Cc1ccccc1NC(=O)CNc1ccc(Cl)c(C(F)(F)F)c1 | inconclusive [activator, partial curve] |  |
| CC(C)Oc1ccc(CC2CCC(=O)N(C)C2=O)cc1 (configuration not stated) | inconclusive [activator, partial curve] |  |
| Cc1nc(Nc2ccc(Cl)cc2Cl)sc1C(=O)Nc1ccccc1 | inconclusive [activator, full curve] |  |
| CCCc1c(C(=O)Nc2ccc(OC)cc2)cnn1-c1ccccc1 | inconclusive [activator, single point] |  |
| COC(=O)[C@]1(C)CCC[C@@]2(C)C3CC[C@@]4(C)C[C@]3(CCC21)CC(=O)N4 (some centres not stated) | inconclusive [activator, partial curve] |  |
| C#CCOC(=O)CCCC(=O)NCCCCCCCC | inconclusive [activator, partial curve] |  |
